The source of these data is US6740677B2, “Methods of treating benzodiazepine site (BZD-S) associated syndromes using 2′ hydroxyflavonoids” (priority 2002, dated 2004).

For experiment [1], the system named is benzodiazepine site on GABAA receptor. In words: GABA shift experiment, [3H]-Ro15-1788 competition with/without 10 μM GABA. The experiment is classed as binding, rat. As to conditions: for GABA ratio (IC50 ratio without GABA/with GABA), column C: 10^-5 M GABA, rat cerebral cortex membranes; for GABA ratio: IC50 without GABA / IC50 with 10 μM GABA, 1 nM [3H]-Ro15-1788.

Experiment [2] deals with benzodiazepine site. As to conditions: 10^-4 M GABA, rat cerebral cortex membranes; cited from earlier work.
Experiment [3] has as its system benzodiazepine site. As to conditions: 10^-5 M muscimol, rat cerebellar membranes; cited from earlier work.
The target of experiment [4] is benzodiazepine site (BZD-S) of the GABAA receptor.
Experiment [5] shares this target. Kind of experiment: Radioligand receptor binding, displacement of [3H]-flunitrazepam (Example 1). As to conditions: for IC50: read-out: Inhibition of 3H-Flunitrazepam IC50, 1 nM [3H]-flunitrazepam, rat whole brain synaptosomal membrane.

Several values for one entry are separate records, joined by “and”; a condition that tells them apart may be missing. Equal values may be shown once.

In the case of `CN1C(=O)CN=C(c2ccccc2F)c2cc([N+](=O)[O-])ccc21` [Flunitrazepam], in experiment [1], the “GABA ratio (IC50 ratio without GABA/with GABA), column C” value stood at 1.9. Besides, in experiment [2], the “GABA ratio (IC50 ratio without GABA/with GABA), column A” value is recorded as 3.3. The “GABA ratio (IC50 ratio without GABA/with GABA), column B” value in experiment [3] was 2.5.

As to `COC(=O)c1cc2c(cn1)[nH]c1ccccc12` [BCCM], the “GABA ratio (IC50 ratio without GABA/with GABA), column C” value in experiment [1] amounted to 0.7. In addition, the “GABA ratio (IC50 ratio without GABA/with GABA), column A” value in experiment [2] is reported as 0.7. For the same compound, the “GABA ratio (IC50 ratio without GABA/with GABA), column B” value in experiment [3] was 0.9.

`CCOC(=O)c1ncn2c1CN(C)C(=O)c1cc(N=[N+]=[N-])ccc1-2` [Ro15-4513, reference compound]: the “GABA ratio (IC50 ratio without GABA/with GABA), column C” value in experiment [1] came to 0.9.

Consider `COc1c(O)cc(O)c2c(=O)cc(-c3ccccc3)oc12` [Compound 8, 5,7-dihydroxy-8-methoxyflavone], for which the Ki in experiment [4] is 2190 nM. In experiment [5], the 50% inhibitory concentration (IC50) came out at 2760 nM.

On to `COc1c(O)cc2oc(-c3ccccc3O)cc(=O)c2c1O` [Compound 2, 5,7,2′-trihydroxy-6-methoxyflavone], for which, in experiment [1], the GABA ratio is recorded as 1.27. Moreover, affinity in experiment [4] was put at a Ki of 7.6 nM. Also, in experiment [5] (Compound 2 vs Compound 7 (K1)), the “fold difference in binding affinity” value worked out at 168 fold. For the same compound, in experiment [5], the IC50 came to 9.6 nM.

Consider `COc1ccccc1-c1cc(=O)c2cc(O)ccc2o1` [Compound 11, 6-hydroxy-2′-methoxyflavone], for which affinity in experiment [4] was put at a Ki of 11500 nM. Also, in experiment [5], the half-inhibitory concentration (IC50) was 14500 nM.

In the case of `CCCCOC(=O)c1cc2c(cn1)[nH]c1ccccc12` [BCCB, reference compound], the “GABA ratio (IC50 ratio without GABA/with GABA), column C” value in experiment [1] is 0.5.

For `COc1c(O)c(OC)c2oc(-c3ccccc3)cc(=O)c2c1O` [Compound 6, 5,7-dihydroxy-6,8-dimethoxyflavone], the inhibition constant Ki in experiment [4] was 290 nM. In addition, the half-maximal inhibitory concentration (IC50) in experiment [5] came to 360 nM.

In the case of `CN1C(=O)CN=C(c2ccccc2F)c2cc([N+](=O)[O-])ccc21` [[^3H]-flunitrazepam, reference compound], the Kd in experiment [5] (read-out: Kd, dissociation constant of [3H]-flunitrazepam from the high affinity binding site, saturation assay) came out at 3.86 nM.

On to `CNC(=O)c1cc2c(cn1)[nH]c1ccccc12` [FG 7142], for which the “GABA ratio (IC50 ratio without GABA/with GABA), column C” value in experiment [1] is on record as 0.9. Further, the “GABA ratio (IC50 ratio without GABA/with GABA), column A” value in experiment [2] was 0.7. In experiment [3], the “GABA ratio (IC50 ratio without GABA/with GABA), column B” value is given as 0.9.

On to `O=c1cc(-c2ccccc2)oc2ccccc12` [Compound 9, flavone], for which, in experiment [4], the Ki was 5440 nM. Besides, the IC50 in experiment [5] was 6860 nM.

As to `O=c1cc(-c2ccccc2O)oc2ccc3ccccc3c12` [Compound 4, 2′-hydroxy-β-naphthoflavone], the GABA ratio in experiment [1] came out at 1.06. In addition, in experiment [4], the inhibitory constant (Ki) is 44 nM. Besides, the IC50 in experiment [5] was found to be 55 nM.

Take `O=c1cc(-c2ccccc2O)oc2ccc(O)cc12` [Compound 3, 6,2′-dihydroxyflavone]: the GABA ratio in experiment [1] came to 0.89. In experiment [4], this compound registered a Ki of 13 nM. Moreover, in experiment [5] (K1 0.013 μM vs Compound 12), the “fold difference in binding affinities” value is “over 900 fold”. In experiment [5], the half-inhibitory concentration (IC50) is 17 nM.

As for `CCCOC(=O)c1cc2c(cn1)[nH]c1ccccc12` [BCCP], in experiment [2], the “GABA ratio (IC50 ratio without GABA/with GABA), column A” value is on record as 1.0. Also, in experiment [3], the “GABA ratio (IC50 ratio without GABA/with GABA), column B” value is listed as 1.1.

Regarding `O=c1cc(-c2ccccc2O)oc2ccccc12` [Compound 5, 2′-hydroxyflavone], the GABA ratio in experiment [1] is listed as 1.17. For the same compound, the inhibition constant Ki in experiment [4] is 190 nM and 150 nM. Also, the “fold difference in binding affinities” value in experiment [5] (Compound 5 vs Compound 9) was above 30 fold; in experiment [5] (Compound 5 vs Compound 12 (K1)) it was 80 fold. The IC50 in experiment [5] stood at 190 nM.

`CCc1c(C(=O)OC)ncc2[nH]c3cc(OC)c(OC)cc3c12` [DMCM]: the “GABA ratio (IC50 ratio without GABA/with GABA), column A” value in experiment [2] was 0.7. For the same compound, the “GABA ratio (IC50 ratio without GABA/with GABA), column B” value in experiment [3] is on record as 0.5.

As for `CCOC(=O)c1ncn2c1CN(C)C(=O)c1cc(F)ccc1-2` [Ro15-1788], in experiment [1], the “GABA ratio (IC50 ratio without GABA/with GABA), column C” value is 0.9. Besides, in experiment [2], the “GABA ratio (IC50 ratio without GABA/with GABA), column A” value is recorded as 1.1. The “GABA ratio (IC50 ratio without GABA/with GABA), column B” value in experiment [3] was 1.2.
